Reference: patent publication US20040152672A1, “Indole compounds useful for the treatment of cancer” (priority 2000, published 2004)

Tested on: CD36
Test: Surface expression of CD36 in THP-1 cells by flow cytometry
Conditions: THP-1 during macrophage differentiation, three days; FIG. 14

Row | SMILES | expression of CD36, a marker of PPAR-γ activation
1 | CCc1cccc2c3c([nH]c12)[C@@](CC)(CC(=O)O)OCC3 [Etodolac R] | caused the expression of CD36
2 | CCc1cccc2c3c([nH]c12)C(CC)(CC(=O)O)OCC3 (centres unmarked) [Etodolac S] | caused the expression of CD36
